# Results taken from publication PMC7819943, “Rice protein-binding microarrays: a tool to detect cis-acting elements near promoter regions in rice”.
# The other results are listed elsewhere or left out.
# Molecular target: T1, OsWOX13 (Oryza sativa, UniProt Q5QMM3 1-267)
# T1 sequence: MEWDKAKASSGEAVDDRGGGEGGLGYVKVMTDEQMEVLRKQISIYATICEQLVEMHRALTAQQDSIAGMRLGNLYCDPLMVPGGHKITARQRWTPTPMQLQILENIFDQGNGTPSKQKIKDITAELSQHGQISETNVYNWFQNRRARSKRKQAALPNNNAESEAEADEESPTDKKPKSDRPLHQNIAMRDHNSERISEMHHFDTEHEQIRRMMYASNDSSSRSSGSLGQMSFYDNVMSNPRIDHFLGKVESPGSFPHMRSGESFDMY
# Assay: protein-binding microarray (RPBM); PBS, 2% BSA, 51.3 ng/ul salmon testes DNA, 50 uM zinc acetate, 200 nM TF, 25 C, 1 h; high values mean tight binding
# Details: protein: recombinant; tags: N-terminal polyhistidine and DsRed monomer fusion (pET32a); label: CyDye5-dUTP incorporated in the synthesized complementary strand; 3' TTTTT single-stranded linker to array surface; dsDNA, one strand shown
# Procedure, shortened: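 Per-feature fluorescence intensity (arbitrary units), read on an Axon 4000B scanner, is the binding signal. Transcription factors carrying an N-terminal polyhistidine tag and DsRed fusion were expressed in E. coli BL21-CodonPlus and purified on Ni–NTA. A custom Agilent array, made double-stranded by primer extension with Cy5-dUTP and blocked with 2% BSA, was incubated with 200 nM protein in PBS, 2% BSA, salmon testes DNA and 50 µM zinc acetate at 25 °C for 1 h and then washed.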
row,Sequence,binding signal
1,CACACTTCTTAATTGCCCTCCTGCATTATGTTTGTTGATCCGGAGTCACCTAGTGCAG,5770 fluorescence intensity (a.u.)
2,GGAAATTAACTGTATCAAGCACATGGTAATTATTTGATTACGGAGTCACCTAGTGCAG,17900 fluorescence intensity (a.u.)
3,AACATTGATGAGAATTGAAATCATTTCGTTGCTCTAATCTCGGAGTCACCTAGTGCAG,13400 fluorescence intensity (a.u.)
4,CCGTCAATATTTATTTAATAGATTAGATGAGATAAGAGGACGGAGTCACCTAGTGCAG,8100 fluorescence intensity (a.u.)
5,ACATTTCTCTCAATCTCTTAACTATCCCACTAGTACTCCACGGAGTCACCTAGTGCAG,3240 fluorescence intensity (a.u.)
6,AATGAGTGATTAATAAAGCATTCTCTTCCAAAGGAAATGTCGGAGTCACCTAGTGCAG,23700 fluorescence intensity (a.u.)
7,TTATTTAAATCAAGATATATTTTAACGTCACCTTTCTCGTCGGAGTCACCTAGTGCAG,3820 fluorescence intensity (a.u.)
8,ATCATATTTAATTTTATAATTTCTTTCTCCATCTTGTAAGCGGAGTCACCTAGTGCAG,15300 fluorescence intensity (a.u.)
9,ATCCAATTAGGAATTGATATTTCACCTTCTATGCCTTCTGCGGAGTCACCTAGTGCAG,16500 fluorescence intensity (a.u.)
10,CACTTCACTCTAAAATTAATTTGTTTCACACTGTTTAGCTCGGAGTCACCTAGTGCAG,13500 fluorescence intensity (a.u.)
11,TTTCAATTTGATGGGCCGGATTTTCAAGGCTCAATATCTTCGGAGTCACCTAGTGCAG,7660 fluorescence intensity (a.u.)
12,ATCCGTTAAATTTAATGTTTCAGACACAGTAGCAATATGTCGGAGTCACCTAGTGCAG,7710 fluorescence intensity (a.u.)
13,CTTGAGGGATAATTGCTCTTATTATTTGCAACTCTAGAGCCGGAGTCACCTAGTGCAG,11800 fluorescence intensity (a.u.)
14,GTCAAATCTCCCAATTAGCACAAATTCCTTCAGTTCCATGCGGAGTCACCTAGTGCAG,8000 fluorescence intensity (a.u.)
15,TTGTCATAATTTGAAATTCAAATTCAAACTGTCCAAACAACGGAGTCACCTAGTGCAG,11400 fluorescence intensity (a.u.)
16,CAAATTCCAATCATCTCCAAAACCACTTCGCAAATAAATTCGGAGTCACCTAGTGCAG,17900 fluorescence intensity (a.u.)
17,TGTATGGATAACACTCAATCAAATACATGTGGTGGTCACGCGGAGTCACCTAGTGCAG,6880 fluorescence intensity (a.u.)
18,TAATTTGTTAATTAATTGAGTGGTACTTAATTGACAAATTCGGAGTCACCTAGTGCAG,51700 fluorescence intensity (a.u.)
19,TCTGCTGATAGAAGAAACAAACGGGGATCTATTTATAGGTCGGAGTCACCTAGTGCAG,10400 fluorescence intensity (a.u.)
20,ACTGTCAAACTGGCTAATTTAGAAAGACGACATCGAATTCCGGAGTCACCTAGTGCAG,11600 fluorescence intensity (a.u.)
21,CCTTAATTAATTGTTATAATACTTGTGTACGCTGAACATACGGAGTCACCTAGTGCAG,51800 fluorescence intensity (a.u.)
22,CCCTTGATGGAAAATTCTGTAAGATTTAAACTACAAATCTCGGAGTCACCTAGTGCAG,8100 fluorescence intensity (a.u.)
23,CAGTAGCTAATTACTCCAATTGTAAAGTCACTGAGGAAAGCGGAGTCACCTAGTGCAG,6580 fluorescence intensity (a.u.)
24,AAATCCTTTTAGATTGGTACGTATATAACATCATCAAACCCGGAGTCACCTAGTGCAG,3580 fluorescence intensity (a.u.)
25,CACCTCTTGTTGATTAGACACATGGTGGGTCGAGGAATGGCGGAGTCACCTAGTGCAG,7200 fluorescence intensity (a.u.)
26,AAAACATTAATTTTATTGATAAAGAAAACTATGCATATATCGGAGTCACCTAGTGCAG,7530 fluorescence intensity (a.u.)
27,CCCGTAATTACCCCAAACACGCAGGGGCATTTCCGTCCACCGGAGTCACCTAGTGCAG,21700 fluorescence intensity (a.u.)

row,Sequence,binding signal
1,CATATATAATAATTAACAGATATAGATAGACATCACATCACGGAGTCACCTAGTGCAG,9750 fluorescence intensity (a.u.)
2,TTAATTGATGAAGTTGTCTTGTGGGGTAGCAGCACTTTGACGGAGTCACCTAGTGCAG,29900 fluorescence intensity (a.u.)
3,GCCATTGACTGAAACAATTCAACTACAACTGATACTAATCCGGAGTCACCTAGTGCAG,15300 fluorescence intensity (a.u.)
4,CCTCATAAATAAATTTATTTGATAGCCTCCTAAGAGATTGCGGAGTCACCTAGTGCAG,14700 fluorescence intensity (a.u.)
5,TTAATTAATGCATGCTTGGACCAGCAATAAATCCTTGGATCGGAGTCACCTAGTGCAG,4550 fluorescence intensity (a.u.)
6,GACTAATCAAACAATTTCCCTCGCTATTAGTCACTGACAGCGGAGTCACCTAGTGCAG,15100 fluorescence intensity (a.u.)
7,TGCCACTCAAGTACAATTATTCCCATTAATTCGCTCCATTCGGAGTCACCTAGTGCAG,5600 fluorescence intensity (a.u.)
8,AGAAATATTCAATCAAGCTACTGCGCACATATATCTTTATCGGAGTCACCTAGTGCAG,9630 fluorescence intensity (a.u.)
9,CTAAACAATAATAATGGGTAACATATAGGGTTCATAATTCCGGAGTCACCTAGTGCAG,4580 fluorescence intensity (a.u.)
10,AAAATACTAATTACAGAATCCGTCAGTAAACCGTGGGACACGGAGTCACCTAGTGCAG,11300 fluorescence intensity (a.u.)
11,TTCAAATTTATTATTGCCCACAGCCCACAACCACATCGACCGGAGTCACCTAGTGCAG,6990 fluorescence intensity (a.u.)
12,TCGGAAAATTATTAGACACCTTTTATTATTTGCAAAAGGCCGGAGTCACCTAGTGCAG,3380 fluorescence intensity (a.u.)
13,AGCTGATCTATCCAAATTGGTGAAACTAATTGTAAATTCTCGGAGTCACCTAGTGCAG,11000 fluorescence intensity (a.u.)
14,ATTTATGATGACAGTGTTATTATGATAGAGGACAGTGTCACGGAGTCACCTAGTGCAG,3720 fluorescence intensity (a.u.)
15,ACTCCCTATTAATTTCCATCACCTTTACCAAACAAGATATCGGAGTCACCTAGTGCAG,6910 fluorescence intensity (a.u.)
16,GTTTGATTGGTGCTGTGCATGACTGCATAGCTCTATTCATCGGAGTCACCTAGTGCAG,40000 fluorescence intensity (a.u.)
17,ATTTATTCAGATTGAGCTAATCAGCCACCAAACTCGCAGACGGAGTCACCTAGTGCAG,9730 fluorescence intensity (a.u.)
18,TTATCAATTACCGATGTGGGACTAAACCTAACAATCTCCCCGGAGTCACCTAGTGCAG,22900 fluorescence intensity (a.u.)
19,CATCGTTTCAATTATAACCAAACTTTTCTACATACACTTCCGGAGTCACCTAGTGCAG,4160 fluorescence intensity (a.u.)
20,TTGTGATTGCCAGCATGGCTGCATCTCGACGAGGCGCCCCCGGAGTCACCTAGTGCAG,22000 fluorescence intensity (a.u.)
21,ACACAAATTACTGTACAACATGGCTGTATCGTAGTTGAAACGGAGTCACCTAGTGCAG,4430 fluorescence intensity (a.u.)
22,ACTGCTGGTAATTGCACAGTTTAATTACCAGCTAATGCATCGGAGTCACCTAGTGCAG,19300 fluorescence intensity (a.u.)
23,ATTATTAATTAGGGAAGCGGAGGAACTACAGCAGATGTTACGGAGTCACCTAGTGCAG,10700 fluorescence intensity (a.u.)
24,ACCTTGATGACGATTTTATTGAAGAAGAAGAAACAAGACACGGAGTCACCTAGTGCAG,14700 fluorescence intensity (a.u.)
25,CTTGATGATTTTATTTATAAAGGTATCAGTTCCAGGCTACCGGAGTCACCTAGTGCAG,27100 fluorescence intensity (a.u.)
26,GAGAAAATAATAGATTAGTGAGGCTGACATGTGGGGCCACCGGAGTCACCTAGTGCAG,12600 fluorescence intensity (a.u.)
27,GTTGATGGACAGGGAGGGAGGCAAGTGGGGCTGTGAATTCCGGAGTCACCTAGTGCAG,16600 fluorescence intensity (a.u.)
